# According to the supplement of paper PMC8728848:
# The other results are listed elsewhere or left out.
# B1: Gal 4 (Mus musculus), P56470 (protein)
# chain: MAYVPAPGYQPTYNPTLPYYQPIPGGLNVGMSVYIQGVASEHMKRFFVNFVVGQDPGSDVAFHFNPRFDGWDKVVFNTLQGGKWGSEERKRSMPFKKGAAFELVFIVLAEHYKVVVNGNPFYEYGHRLPLQMVTHLQVDGDLQLQSINFIGGQPLRPQGPPMMPPYPGPGHCHQQLNSLPTMEGPPTFNPPVPYFGRLQGGLTARRTIIIKGYVPPTGKSFAINFKVGSSGDIALHINPRMGNGTVVRNSLLNGSWGSEEKKITHNPFGPGQFFDLSIRCGLDRFKVYANGQHLFDFAHRLSAFQRVDTLEIQGDVTLSYVQI
# Columns and labels:
# Assay in all cases: glycan array binding signal (z-score within array); higher = stronger binding
# Conditions in all cases: glycan notation: IUPAC condensed, linker removed
# [1] = target: Gal(b1-4)GlcNAc(b1-2)[Gal(b1-4)GlcNAc(b1-6)]Man(a1-6)[GlcNAc(b1-4)][Gal(b1-4)GlcNAc(b1-2)Man(a1-3)]Man(b1-4)GlcNAc(b1-4)GlcNAc
# Summary of the method: (§1)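 Arrays were curated from the Consortium for Functional Glycomics database, 3228 in total, and kept only where the protein sequence was available. Binding is expressed as a within-array Z-score. This score was averaged across arrays of the same protein sequence at different concentrations or buffers and across linkers, and negative values can be read as non-binding.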
# [2] = target: Gal(b1-4)GlcNAc(b1-2)[Gal(b1-4)GlcNAc(b1-6)]Man(a1-6)[GlcNAc(b1-4)][Gal(b1-4)GlcNAc(b1-2)[Gal(b1-4)GlcNAc(b1-4)]Man(a1-3)]Man(b1-4)GlcNAc(b1-4)[Fuc(a1-6)]GlcNAc
# Summary of the method: as §1
# [3] = target: Gal(b1-4)GlcNAc(b1-3)Gal(b1-3)GalNAc
# Summary of the method: as §1
# [4] = target: Gal(b1-4)GlcNAc(b1-3)Gal(b1-3)GlcNAc
# Summary of the method: as §1
# [5] = target: Gal(b1-4)GlcNAc(b1-3)Gal(b1-4)Glc
# Summary of the method: as §1
# [6] = target: Gal(b1-4)GlcNAc(b1-3)Gal(b1-4)GlcNAc
# Summary of the method: as §1
# [7] = target: Gal(b1-4)GlcNAc(b1-3)Gal(b1-4)GlcNAc(b1-2)Man(a1-3)[Gal(b1-4)GlcNAc(b1-3)Gal(b1-4)GlcNAc(b1-2)Man(a1-6)]Man(b1-4)GlcNAc(b1-4)GlcNAc
# Summary of the method: as §1
# [8] = target: Gal(b1-4)GlcNAc(b1-3)Gal(b1-4)GlcNAc(b1-2)Man(a1-3)[Gal(b1-4)GlcNAc(b1-3)Gal(b1-4)GlcNAc(b1-2)Man(a1-6)]Man(b1-4)GlcNAc(b1-4)[Fuc(a1-6)]GlcNAc
# Summary of the method: as §1
# [9] = target: Gal(b1-4)GlcNAc(b1-3)Gal(b1-4)GlcNAc(b1-2)[Gal(b1-4)GlcNAc(b1-3)Gal(b1-4)GlcNAc(b1-6)]Man(a1-6)[Gal(b1-4)GlcNAc(b1-3)Gal(b1-4)GlcNAc(b1-2)Man(a1-3)]Man(b1-4)GlcNAc(b1-4)GlcNAc
# Summary of the method: as §1
# [10] = target: Gal(b1-4)GlcNAc(b1-3)Gal(b1-4)GlcNAc(b1-2)[Gal(b1-4)GlcNAc(b1-3)Gal(b1-4)GlcNAc(b1-6)]Man(a1-6)[Gal(b1-4)GlcNAc(b1-3)Gal(b1-4)GlcNAc(b1-2)Man(a1-3)]Man(b1-4)GlcNAc(b1-4)[Fuc(a1-6)]GlcNAc
# Summary of the method: as §1
# [11] = target: Gal(b1-4)GlcNAc(b1-3)Gal(b1-4)GlcNAc(b1-3)Gal(b1-4)GlcNAc
# Summary of the method: as §1
# [12] = target: Gal(b1-4)GlcNAc(b1-3)Gal(b1-4)GlcNAc(b1-3)Gal(b1-4)GlcNAc(b1-2)Man(a1-3)[Gal(b1-4)GlcNAc(b1-3)Gal(b1-4)GlcNAc(b1-3)Gal(b1-4)GlcNAc(b1-2)Man(a1-6)]Man(b1-4)GlcNAc(b1-4)GlcNAc
# Summary of the method: as §1
# [13] = target: Gal(b1-4)GlcNAc(b1-3)Gal(b1-4)GlcNAc(b1-3)Gal(b1-4)GlcNAc(b1-2)Man(a1-3)[Gal(b1-4)GlcNAc(b1-3)Gal(b1-4)GlcNAc(b1-3)Gal(b1-4)GlcNAc(b1-2)Man(a1-6)]Man(b1-4)GlcNAc(b1-4)[Fuc(a1-6)]GlcNAc
# Summary of the method: as §1
# [14] = target: Gal(b1-4)GlcNAc(b1-3)Gal(b1-4)GlcNAc(b1-3)Gal(b1-4)GlcNAc(b1-2)[Gal(b1-4)GlcNAc(b1-3)Gal(b1-4)GlcNAc(b1-3)Gal(b1-4)GlcNAc(b1-6)]Man(a1-6)[Gal(b1-4)GlcNAc(b1-3)Gal(b1-4)GlcNAc(b1-3)Gal(b1-4)GlcNAc(b1-2)Man(a1-3)]Man(b1-4)GlcNAc(b1-4)[Fuc(a1-6)]GlcNAc
# Summary of the method: as §1
# [15] = target: Gal(b1-4)GlcNAc(b1-3)Gal(b1-4)GlcNAc(b1-3)Gal(b1-4)GlcNAc(b1-3)Gal(b1-4)GlcNAc(b1-2)Man(a1-3)[Gal(b1-4)GlcNAc(b1-3)Gal(b1-4)GlcNAc(b1-3)Gal(b1-4)GlcNAc(b1-3)Gal(b1-4)GlcNAc(b1-2)Man(a1-6)]Man(b1-4)GlcNAc(b1-4)GlcNAc
# Summary of the method: as §1
# [16] = target: Gal(b1-4)GlcNAc(b1-3)Gal(b1-4)GlcNAc(b1-3)Gal(b1-4)GlcNAc(b1-3)Gal(b1-4)GlcNAc(b1-2)Man(a1-3)[Gal(b1-4)GlcNAc(b1-3)Gal(b1-4)GlcNAc(b1-3)Gal(b1-4)GlcNAc(b1-3)Gal(b1-4)GlcNAc(b1-2)Man(a1-6)]Man(b1-4)GlcNAc(b1-4)[Fuc(a1-6)]GlcNAc
# Summary of the method: as §1
# [17] = target: Gal(b1-4)GlcNAc(b1-3)Gal(b1-4)GlcNAc(b1-3)Gal(b1-4)GlcNAc(b1-3)Gal(b1-4)GlcNAc(b1-2)[Gal(b1-4)GlcNAc(b1-3)Gal(b1-4)GlcNAc(b1-3)Gal(b1-4)GlcNAc(b1-3)Gal(b1-4)GlcNAc(b1-6)]Man(a1-6)[Gal(b1-4)GlcNAc(b1-3)Gal(b1-4)GlcNAc(b1-3)Gal(b1-4)GlcNAc(b1-3)Gal(b1-4)GlcNAc(b1-2)Man(a1-3)]Man(b1-4)GlcNAc(b1-4)[Fuc(a1-6)]GlcNAc
# Summary of the method: as §1
# [18] = target: Gal(b1-4)GlcNAc(b1-3)Gal(b1-4)GlcNAc(b1-3)Gal(b1-4)GlcNAc(b1-3)Gal(b1-4)GlcNAc(b1-3)Gal(b1-4)GlcNAc(b1-2)Man(a1-3)[Gal(b1-4)GlcNAc(b1-3)Gal(b1-4)GlcNAc(b1-3)Gal(b1-4)GlcNAc(b1-3)Gal(b1-4)GlcNAc(b1-3)Gal(b1-4)GlcNAc(b1-2)Man(a1-6)]Man(b1-4)GlcNAc(b1-4)GlcNAc
# Summary of the method: as §1
# [19] = target: Gal(b1-4)GlcNAc(b1-3)Gal(b1-4)GlcNAc(b1-3)Gal(b1-4)GlcNAc(b1-3)Gal(b1-4)GlcNAc(b1-3)Gal(b1-4)GlcNAc(b1-2)Man(a1-3)[Gal(b1-4)GlcNAc(b1-3)Gal(b1-4)GlcNAc(b1-3)Gal(b1-4)GlcNAc(b1-3)Gal(b1-4)GlcNAc(b1-3)Gal(b1-4)GlcNAc(b1-2)Man(a1-6)]Man(b1-4)GlcNAc(b1-4)[Fuc(a1-6)]GlcNAc
# Summary of the method: as §1
# [20] = target: Gal(b1-4)GlcNAc(b1-3)Gal(b1-4)GlcNAc(b1-3)Gal(b1-4)GlcNAc(b1-3)Gal(b1-4)GlcNAc(b1-3)Gal(b1-4)GlcNAc(b1-2)[Gal(b1-4)GlcNAc(b1-3)Gal(b1-4)GlcNAc(b1-3)Gal(b1-4)GlcNAc(b1-3)Gal(b1-4)GlcNAc(b1-3)Gal(b1-4)GlcNAc(b1-6)]Man(a1-6)[Gal(b1-4)GlcNAc(b1-3)Gal(b1-4)GlcNAc(b1-3)Gal(b1-4)GlcNAc(b1-3)Gal(b1-4)GlcNAc(b1-3)Gal(b1-4)GlcNAc(b1-2)Man(a1-3)]Man(b1-4)GlcNAc(b1-4)[Fuc(a1-6)]GlcNAc
# Summary of the method: as §1
# [21] = target: Gal(b1-4)GlcNAc(b1-3)Gal(b1-4)GlcNAc(b1-3)Gal(b1-4)GlcNAc(b1-3)Gal(b1-4)GlcNAc(b1-3)Gal(b1-4)GlcNAc(b1-3)Gal(b1-4)GlcNAc(b1-2)Man(a1-3)[Gal(b1-4)GlcNAc(b1-3)Gal(b1-4)GlcNAc(b1-3)Gal(b1-4)GlcNAc(b1-3)Gal(b1-4)GlcNAc(b1-3)Gal(b1-4)GlcNAc(b1-3)Gal(b1-4)GlcNAc(b1-2)Man(a1-6)]Man(b1-4)GlcNAc(b1-4)GlcNAc
# Summary of the method: as §1
# [22] = target: Gal(b1-4)GlcNAc(b1-3)Gal(b1-4)GlcNAc(b1-3)GalNAc
# Summary of the method: as §1
binder,measurement,setting,value
B1,glycan array binding signal (z-score),[1],-0.203
same,glycan array binding signal (z-score),[2],-0.283
same,glycan array binding signal (z-score),[3],0.135
same,glycan array binding signal (z-score),[4],-0.036
same,glycan array binding signal (z-score),[5],0.673
same,glycan array binding signal (z-score),[6],-0.076
same,glycan array binding signal (z-score),[7],-0.204
same,glycan array binding signal (z-score),[8],-0.214
same,glycan array binding signal (z-score),[9],-0.175
same,glycan array binding signal (z-score),[10],-0.116
same,glycan array binding signal (z-score),[11],-0.171
same,glycan array binding signal (z-score),[12],-0.249
same,glycan array binding signal (z-score),[13],-0.263
same,glycan array binding signal (z-score),[14],-0.024
same,glycan array binding signal (z-score),[15],-0.195
same,glycan array binding signal (z-score),[16],-0.161
same,glycan array binding signal (z-score),[17],-0.148
same,glycan array binding signal (z-score),[18],-0.202
same,glycan array binding signal (z-score),[19],-0.281
same,glycan array binding signal (z-score),[20],-0.171
same,glycan array binding signal (z-score),[21],-0.147
same,glycan array binding signal (z-score),[22],-0.195
